In the RNAGym collection of RNA variant scans (doi:10.1093/nar/gkz1192) one finds self-cleavage data, which are given here for 83 variants.

The source gives no read counts; variants with many changes may rest on few reads.

The labels stand for the following.
B1: CPEB3 Ribozyme (parent)
chain: UAACAGGGGGCCACAGCAGAAGCGUUCACGUCGCAGCCCCUGUCAGAUUCUGGUGAAUCUGCGAAUUCUGCUGUAUAUCUC

Variants of B1 are the subject of the data set. Put plainly: self-cleavage, relative activity (ratio to wild type); higher = more cleavage; in vitro, sequencing. In outline: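 Libraries of CPEB3 self-cleaving ribozyme mutants came from rounds of error-prone PCR and carried barcodes, which DNA sequencing matched to variants. In vitro transcription used T7 RNA polymerase at 37°C for 5 hours, with a further 15 min in DNase I before EDTA stopped the reaction; the ribozymes cleaved during both steps. The RNA was reverse transcribed with template switching and sequenced on Illumina. Relative activity is the cleaved/total read fraction of a variant divided by that of the unmutated ribozyme, averaged over three batches with at least 5 reads.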
On to C11G A13U U25C U80C, for which the self-cleavage came out at 0.06.

For the variant C11U U51A U54C A56G, the self-cleavage was 0.11.

As to C11A A15U U25C, the self-cleavage turned out to be 0.05.

Regarding G10A G24A U72A, the self-cleavage worked out at 0.17.

As for C11G C38U U49C, the self-cleavage turned out to be 0.08.

Regarding C11U A28G U48C G63A, the self-cleavage came to 0.06.

Regarding C11G A18U U31A A57G A75G, the self-cleavage was 0.06.

With G10A A28G U76G, the self-cleavage was determined as 0.05.

Consider G10U A13U G19C U26A U43C U54C U67A, for which the self-cleavage turned out to be 0.04.

Take C11G U26A U31C A56U U67A U80C: the self-cleavage is 0.05.

Regarding C11U U41A U49C, the self-cleavage was determined as 0.07.

In the case of G10A C27U A35G U66C, the self-cleavage turned out to be 0.6.

On to C11G U41A G46A A47G U69A, for which the self-cleavage turned out to be 0.21.

On to C11G U54C U58C U67C, for which the self-cleavage came to 0.08.

In the case of C11U U26A G36A U51C, the self-cleavage turned out to be 0.29.

Take C11U A45U A47U U49A U80A: the self-cleavage came to 0.18.

On to C11G A28G A35U U41A, for which the self-cleavage was determined as 0.26.

C11G U67G U72C: the self-cleavage was found to be 0.17.

For the variant G10A U48C U78C, the self-cleavage worked out at 0.12.

On to C11U C40U A45G, for which the self-cleavage came out at 0.11.

Take C11G U31C A56G U60C U72A: the self-cleavage was 0.09.

Take C11G G46A A47G U48C: the self-cleavage amounted to 0.29.

As for C11G C17U U48C U51C A56G, the self-cleavage was determined as 0.06.

Consider G10U U25A U41C, for which the self-cleavage was 0.22.

Regarding C11G U67G A75U, the self-cleavage stood at 0.09.

With C11G A28G U72C U80A, the self-cleavage is 0.75.

As to G10A U41A G46A U51A A57G U60C A64G, the self-cleavage was 0.04.

On to G10U A15G A47G, for which the self-cleavage amounted to 0.24.

With C11G C37U C40A A64G A77G, the self-cleavage was determined as 0.04.

In the case of G10U G19U U49A U58C, the self-cleavage came out at 0.05.

As for C11G A28G C40U U41C G53A U54C A65G, the self-cleavage was determined as 0.03.

In the case of C11U U41G U54A, the self-cleavage worked out at 0.07.

G10C C23A U66C: the self-cleavage worked out at 0.14.

On to C11A A35U A64G A65G U66C, for which the self-cleavage came out at 0.08.

With G10A C14A C29U A75U, the self-cleavage was 0.04.

Consider C11G U26A U58C U72C, for which the self-cleavage turned out to be 0.09.

In the case of G10U U41A U58C U60A U80C, the self-cleavage was 0.05.

Take C11A U25A G33C C40U U41C U51C: the self-cleavage came to 0.06.

Regarding G10C C14U A21G U51A C59G A77U, the self-cleavage stood at 0.17.

Take G10C A15G A21G G63U A64C U67G U80C: the self-cleavage stood at 0.05.

With C11U G30U C37U U48C U66C, the self-cleavage came out at 0.18.

With C11G U26A U80A, the self-cleavage was 0.19.

As to G10A A35G U41C, the self-cleavage amounted to 0.83.

Take C11G A35G A57G A77G: the self-cleavage worked out at 0.26.

For the variant C11A C27U U67A, the self-cleavage was found to be 0.2.

For C11U U26C U69A, the self-cleavage was determined as 0.28.

As for C11U A35U U43C, the self-cleavage came to 0.46.

With C11A C23U A28U U54C A57G, the self-cleavage was 0.11.

Take G10A A21G A47G C50U U80A: the self-cleavage was found to be 0.09.

As for C11G C27U A45G U60A, the self-cleavage amounted to 0.18.

With G10A U49A A56G G70C, the self-cleavage was 0.12.

Consider G10U A18G U25C A35G U48A U80C, for which the self-cleavage is 0.04.

In the case of C11A A57G A65G U80C, the self-cleavage stood at 0.17.

On to G10A U48C U49C, for which the self-cleavage amounted to 0.17.

As for G10C U25G U26C A47G U49C, the self-cleavage stood at 0.18.

For C11U A18G U25A, the self-cleavage was 0.34.

G10A G16C A45G U51C: the self-cleavage worked out at 0.14.

On to G10C U49A U72A U78C C81A, for which the self-cleavage was found to be 0.03.

In the case of C11A A47U A56U U60C U69G, the self-cleavage was 0.04.

On to G10A C12U U48C U69A, for which the self-cleavage came out at 0.05.

On to G10A A21G U54C U67C U69A U74C, for which the self-cleavage is 0.09.

For the variant G10A C29U A35U A64G G70A U78C, the self-cleavage was 0.03.

Take C11U A57U U80C: the self-cleavage worked out at 0.13.

In the case of G10U U48C U60A, the self-cleavage was 0.1.

As to G10C U49A C79A, the self-cleavage was 0.07.

With C11U A21G U25G U26A U49A A77G, the self-cleavage is 0.2.

As to G10A A21G C40A U41A U48C U60C, the self-cleavage was 0.03.

Regarding G10U A18G U41A, the self-cleavage was found to be 0.07.

Turning to G10A U31C A35U U60C A64G, the self-cleavage was found to be 0.09.

C11U A21G C23U U66C G70U: the self-cleavage stood at 0.04.

On to C11G U26C U49C U67A U72C U80C, for which the self-cleavage was 0.03.

Regarding G10A U69C U72C, the self-cleavage worked out at 0.14.

Consider C11A A21G U60C, for which the self-cleavage is 0.32.

Take G10U C23G A47G U60G U72C: the self-cleavage was found to be 0.14.

Regarding C11U A18G G24C U43C U72C, the self-cleavage was 0.07.

As for G10C A15G G63A, the self-cleavage is 0.08.

In the case of C11U A15U U41C, the self-cleavage was 0.17.

Regarding C11U A13G U25C, the self-cleavage came out at 0.27.

In the case of G10U A15U A45U U78C, the self-cleavage worked out at 0.05.

For G10C G16A U43C U58C, the self-cleavage is 0.14.

For the variant G10A C29U A56G, the self-cleavage was found to be 0.18.

Consider C11A G16A U43C G46U U51A C62U U67C, for which the self-cleavage is 0.05.

Consider C11A A21U G30A A45U G61A A75G, for which the self-cleavage came out at 0.03.
